The text below walks through data of the supplement of paper PMC10126150.

Sequences with one replicate were seen in a single cluster, so their values are uncertain.

The subject of this data set is ATP. In words: switch fluorescence ratio, 500 uM ATP over buffer (Cy3 cluster intensity, sum of 5 cycles each) (fold (ratio)); higher = stronger signal-on switching upon ATP binding; sequences stand for … in TCGTCGGCAGCGTCAGATGTGTATAAGAGACAGTTTTTTTTTTTTTTTTTTTTTTTTT…TC. The settings on record: aptamer strand: ATP DNA aptamer (quencher-CACCTGGGGGAGTATTGCGGAGGAAGG + anchor), 100 nM annealed; ATP concentration: 500 uM; one replicate. In outline: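 Values give the fluorescence ratio for each switch-domain sequence, averaged from per-cluster ratios of summed target-cycle to summed buffer-cycle Cy3 intensity. The Cy3-labelled switching-strand clusters sat on a modified Illumina MiSeq flow-cell, were annealed to 100 nM quencher-labelled ATP aptamer, and were imaged in selection buffer, then after 15 min with 500 uM ATP at 22 °C. Five cycles ran with NaOH stripping and re-annealing between them, and clusters outside 100-1000 RFU were excluded.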
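Also: ATP exposure 15 min at 22 °C before imaging.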

As for TTTAGTTG, the switch fluorescence ratio was determined as 0.978.

As for ATTAGATACC, the switch fluorescence ratio is 1.07.

As for ACTATCGGGG, the switch fluorescence ratio was found to be 1.01.

Regarding ATTATAGAAA, the switch fluorescence ratio amounted to 0.955.

In the case of TTGATTACGT, the switch fluorescence ratio was determined as 0.98.

As to GCGATACCAT, the switch fluorescence ratio is 1.12.

Regarding CTGTTGTCTA, the switch fluorescence ratio is 1.02.

For the sequence GATTGCCACC, the switch fluorescence ratio is 1.06.

As to GGGGAGCGGA, the switch fluorescence ratio worked out at 0.96.

Consider TTTCTTCCGA, for which the switch fluorescence ratio is 1.12.

For the sequence CACCTGCGAC, the switch fluorescence ratio was found to be 1.78.

Turning to TTTTATACTG, the switch fluorescence ratio was 1.06.

On to AGTACTCGGA, for which the switch fluorescence ratio amounted to 0.98.

As to ATCAAGGTAT, the switch fluorescence ratio was found to be 0.999.

As for TTTGTTCCCT, the switch fluorescence ratio is 1.02.

Take TTCATCTAGT: the switch fluorescence ratio worked out at 1.02.

Turning to CTAGATGTGC, the switch fluorescence ratio came to 0.941.

As for CCCGTTAGTC, the switch fluorescence ratio stood at 1.07.

With AATGCTTCGG, the switch fluorescence ratio turned out to be 0.977.

As for TCAGCCGTAC, the switch fluorescence ratio worked out at 1.14.

TGACCAATTG: the switch fluorescence ratio was determined as 0.975.

As to CGCTTCTGT, the switch fluorescence ratio is 1.

On to CGCTTGGCTA, for which the switch fluorescence ratio worked out at 0.994.

On to CGGTATGACT, for which the switch fluorescence ratio worked out at 0.935.

Take TAACTGCGTC: the switch fluorescence ratio came to 0.99.

In the case of CGTTGTGT, the switch fluorescence ratio was 0.988.

In the case of CATAAGGAGA, the switch fluorescence ratio is 1.03.

With AGTGAAAAGA, the switch fluorescence ratio is 0.984.

For the sequence GAGGCGCG, the switch fluorescence ratio was determined as 1.04.

On to AATCAATATA, for which the switch fluorescence ratio amounted to 0.991.

TCCATGCACA: the switch fluorescence ratio was 1.11.

In the case of TTTGAGTC, the switch fluorescence ratio turned out to be 0.974.

Take TGTTGTGTCT: the switch fluorescence ratio is 1.01.

Take CGCGCGCCAT: the switch fluorescence ratio turned out to be 1.04.

Take ACTTTTGTAA: the switch fluorescence ratio was 1.

Consider ATGATAAACA, for which the switch fluorescence ratio turned out to be 1.01.

Take CTCGCGAATG: the switch fluorescence ratio was 1.39.

In the case of ACGGTTATCA, the switch fluorescence ratio came out at 1.02.

Turning to ATCCCACTTA, the switch fluorescence ratio was determined as 1.05.

Regarding TTCTGACCCG, the switch fluorescence ratio was 1.05.

On to ACGAATTAC, for which the switch fluorescence ratio stood at 2.44.

As to AGATCGGAAT, the switch fluorescence ratio is 1.01.

As to GCCACGACGT, the switch fluorescence ratio stood at 1.01.

Turning to GGACGGGATA, the switch fluorescence ratio was found to be 1.07.

For CTAGTTTAAT, the switch fluorescence ratio amounted to 0.993.

Consider ACGTTCGAT, for which the switch fluorescence ratio is 1.04.

TAAGTAGC: the switch fluorescence ratio was 1.02.

On to ATAATTTGGC, for which the switch fluorescence ratio came out at 1.04.

For GTATCTATGG, the switch fluorescence ratio is 0.994.

Turning to AGTACGAGAC, the switch fluorescence ratio was 1.14.

Turning to TTGATTTAGT, the switch fluorescence ratio was 0.969.

Consider GCCTATAAAA, for which the switch fluorescence ratio is 0.972.

On to GGTTAAGGGC, for which the switch fluorescence ratio was determined as 1.01.

On to GTTCAGTAAT, for which the switch fluorescence ratio was determined as 1.04.

On to AAGGGATACT, for which the switch fluorescence ratio stood at 1.01.

CTAGAAGAAG: the switch fluorescence ratio was 0.993.

As to AACCAATCCT, the switch fluorescence ratio was determined as 1.15.

AATCTTCACA: the switch fluorescence ratio was 1.05.

Turning to ACCATTCTAG, the switch fluorescence ratio was 0.996.

Take GAAATCAGTG: the switch fluorescence ratio stood at 1.01.

Regarding TTTTCTACTA, the switch fluorescence ratio was 0.996.

As for TAAGATTAAG, the switch fluorescence ratio was determined as 0.982.

For GCATTACATA, the switch fluorescence ratio amounted to 1.07.

In the case of AAACGGTTAA, the switch fluorescence ratio was 0.954.

TCCCACAACT: the switch fluorescence ratio was found to be 1.11.

With CTAATGGGAA, the switch fluorescence ratio was 1.05.

Consider TTTCTGTCTT, for which the switch fluorescence ratio came to 0.92.

AAAATTTCAC: the switch fluorescence ratio was found to be 0.981.

For AACCATGCGT, the switch fluorescence ratio came out at 1.03.

Regarding TAGATGGTTA, the switch fluorescence ratio turned out to be 1.

With AAGGTCAATC, the switch fluorescence ratio was 1.08.

For the sequence ACAAGTGATA, the switch fluorescence ratio was 0.973.

As to AGACACAGGC, the switch fluorescence ratio amounted to 0.992.

In the case of GGATAATAGA, the switch fluorescence ratio is 1.07.

As to CACCAGCGGC, the switch fluorescence ratio came to 1.05.

Turning to TAAGGTTGTT, the switch fluorescence ratio stood at 0.998.

As to TGCTTAACGC, the switch fluorescence ratio was found to be 1.07.

For TGGTACCGTG, the switch fluorescence ratio stood at 1.02.

In the case of GATGGCAGGA, the switch fluorescence ratio was 1.04.

Regarding AATTATCTCC, the switch fluorescence ratio is 1.08.

In the case of CAGTCCGTGA, the switch fluorescence ratio turned out to be 1.36.

As for AAGAGATTTC, the switch fluorescence ratio was found to be 1.03.

On to CGTTACGCAA, for which the switch fluorescence ratio was found to be 3.8.

Take GCCATGCGGG: the switch fluorescence ratio stood at 1.01.

On to TAGGAACCAA, for which the switch fluorescence ratio was 1.03.

With TCAACCCATA, the switch fluorescence ratio amounted to 0.993.

Take ACACGTCTAT: the switch fluorescence ratio worked out at 1.07.

Consider AGTGTTTTTA, for which the switch fluorescence ratio was 1.02.

Regarding TATCGTAATC, the switch fluorescence ratio amounted to 1.41.

Turning to AACTTACGTA, the switch fluorescence ratio is 1.36.

For the sequence GATCCCCGAG, the switch fluorescence ratio was 1.04.

Turning to CAGTGCCGCC, the switch fluorescence ratio is 1.06.

On to ATATGGGCTA, for which the switch fluorescence ratio is 0.997.

With CGAAGGTCTC, the switch fluorescence ratio worked out at 0.996.

On to TCCTCTTGTC, for which the switch fluorescence ratio amounted to 1.01.

In the case of TTATAGAGCA, the switch fluorescence ratio was determined as 0.961.

On to TGTTTCGTTA, for which the switch fluorescence ratio was found to be 0.997.

On to ACTGGTCTAT, for which the switch fluorescence ratio came to 0.971.

Turning to TGCTATTTCC, the switch fluorescence ratio is 1.06.

For the sequence TCATATCCGC, the switch fluorescence ratio stood at 1.32.

As to TACTTCCGCT, the switch fluorescence ratio worked out at 1.32.

In the case of GACAGGTTT, the switch fluorescence ratio was determined as 1.24.

On to CTCTTCAAAC, for which the switch fluorescence ratio was found to be 2.1.

GGAGCCGAAT: the switch fluorescence ratio worked out at 1.02.

For CTTGTGTATT, the switch fluorescence ratio was determined as 0.966.

AATTTCCTCA: the switch fluorescence ratio was 1.02.

On to TTGCATCCAT, for which the switch fluorescence ratio is 0.976.

With AAGTTATTGC, the switch fluorescence ratio turned out to be 1.07.

Regarding TGTAATACCG, the switch fluorescence ratio stood at 1.03.

In the case of AGGATATATG, the switch fluorescence ratio turned out to be 0.961.

As for TGCGCTATCC, the switch fluorescence ratio came out at 1.94.

TTTCAATTA: the switch fluorescence ratio came out at 0.958.

In the case of AAGAATTGTT, the switch fluorescence ratio amounted to 0.956.

Consider TGTGAAGAGG, for which the switch fluorescence ratio was found to be 0.992.

Regarding CGATAGCCT, the switch fluorescence ratio worked out at 2.29.

For the sequence TGAGAGCATT, the switch fluorescence ratio turned out to be 1.05.

For CTCTGATTGT, the switch fluorescence ratio worked out at 0.964.

AGGAGCAATA: the switch fluorescence ratio was 6.08.

With CGGGGGAACT, the switch fluorescence ratio stood at 1.01.

With GACTTTCGTT, the switch fluorescence ratio was 0.991.
